Test results taken from PMC7819943, “Rice protein-binding microarrays: a tool to detect cis-acting elements near promoter regions in rice”.
The other results are listed elsewhere or left out.

The sequences below were run against T1, OsWOX13 (Oryza sativa, UniProt Q5QMM3 1-267) (assay: protein-binding microarray (RPBM); PBS, 2% BSA, 51.3 ng/ul salmon testes DNA, 50 uM zinc acetate, 200 nM TF, 25 C, 1 h; high values mean tight binding). Settings: protein: recombinant; tags: N-terminal polyhistidine and DsRed monomer fusion (pET32a); label: CyDye5-dUTP incorporated in the synthesized complementary strand; 3' TTTTT single-stranded linker to array surface; dsDNA, one strand shown.
T1 sequence: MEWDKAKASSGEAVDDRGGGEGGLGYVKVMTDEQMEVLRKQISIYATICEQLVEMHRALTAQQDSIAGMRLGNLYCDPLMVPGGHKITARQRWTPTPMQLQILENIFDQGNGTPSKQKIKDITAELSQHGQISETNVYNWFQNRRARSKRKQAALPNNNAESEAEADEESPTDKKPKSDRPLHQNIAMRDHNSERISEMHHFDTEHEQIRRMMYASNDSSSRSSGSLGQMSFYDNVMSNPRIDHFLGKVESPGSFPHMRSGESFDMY
Method in brief: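 Binding signal is defined as the fluorescence intensity of each feature in arbitrary units, read on an Axon 4000B scanner. Transcription factors with N-terminal polyhistidine and DsRed fusions came from E. coli BL21-CodonPlus and were purified on Ni–NTA. They were incubated at 200 nM for 1 h at 25 °C on a custom Agilent array that had been made double-stranded with Cy5-dUTP, with 50 µM zinc acetate present, and the array was washed.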

| Sequence | binding signal |
| --- | --- |
| TGTATATTAACTGATGGAAATATAATAGTATCACTATATGCGGAGTCACCTAGTGCAG | 13600 fluorescence intensity (a.u.) |
| GACTGATATGTTTAAAATTAAGCTAGTGTGCTCAGGTCTGCGGAGTCACCTAGTGCAG | 5060 fluorescence intensity (a.u.) |
| AACTAATTAATTTATTGGCAGGCACTGGCCTACCAAACCTCGGAGTCACCTAGTGCAG | 53100 fluorescence intensity (a.u.) |
| GAGTATAATTACAGCGAATTATCTGAACACTGAATTATCGCGGAGTCACCTAGTGCAG | 20600 fluorescence intensity (a.u.) |
| AACATTCAAAGTGATTTAATTTCTCCTTGGTCTTGATGTCCGGAGTCACCTAGTGCAG | 6030 fluorescence intensity (a.u.) |
| AACATCTGATTGTGTTGAAACACTATTGCTCCATTGTGAACGGAGTCACCTAGTGCAG | 9650 fluorescence intensity (a.u.) |
| TGAAATTGATATTGATGCCATAGTGAATATGACTTCGCATCGGAGTCACCTAGTGCAG | 39700 fluorescence intensity (a.u.) |
| CTATCAATCAATTCCTTCTTATTTAGAAACCAATCAAGATCGGAGTCACCTAGTGCAG | 36400 fluorescence intensity (a.u.) |
| TTGATAATTATTGACGTTTCAAATAATTGTCAAACTTCACCGGAGTCACCTAGTGCAG | 36900 fluorescence intensity (a.u.) |
| AACAAATATGACTTGACAGATTAAAATCCATTTCCACAGTCGGAGTCACCTAGTGCAG | 10700 fluorescence intensity (a.u.) |
| GAAAATTAGTACTCCCTCCAGTAGCCTTGTTATTGTGCGGCGGAGTCACCTAGTGCAG | 5790 fluorescence intensity (a.u.) |
| CAGTATGCAAAACTTGGTGATTGAGATATCATCAGTTGCTCGGAGTCACCTAGTGCAG | 5980 fluorescence intensity (a.u.) |
| CTTGAATTATGCTGTCTAAAGTTGTCATCTTTCTGAATGACGGAGTCACCTAGTGCAG | 6970 fluorescence intensity (a.u.) |
| GGATTAATTAGGCTTAATAAATTTGTCTCACAGTTTACATCGGAGTCACCTAGTGCAG | 36600 fluorescence intensity (a.u.) |
| TATATATATATATATATATATATATATATAAGAAAATAAACGGAGTCACCTAGTGCAG | 6130 fluorescence intensity (a.u.) |
| ATACTAATTTGTTCTATAAAGTTGTTGGAGAAACCGTGTTCGGAGTCACCTAGTGCAG | 30800 fluorescence intensity (a.u.) |
| TAAAACAAATCATCGAAATATTATCAATGAAATCGTACATCGGAGTCACCTAGTGCAG | 3550 fluorescence intensity (a.u.) |
| AAATATAATTACAGTATAATCGTAGTGTAATTACATTGTACGGAGTCACCTAGTGCAG | 20800 fluorescence intensity (a.u.) |
| AGCTCTTAATTAGCAGCACAATTTGCATGCGCATGCACACCGGAGTCACCTAGTGCAG | 7840 fluorescence intensity (a.u.) |
| TGGTTTGCCCTGATTGGTCGCGTGACGCGTCCTCATATGCCGGAGTCACCTAGTGCAG | 17500 fluorescence intensity (a.u.) |
| CTAAACGTTGTTAAAATTTGTTTACACTGTCTGGTAATTCCGGAGTCACCTAGTGCAG | 4460 fluorescence intensity (a.u.) |

| Sequence | binding signal |
| --- | --- |
| CAGCAGATAGAATAATCACAAGAATTACTGTGGTTCTGGGCGGAGTCACCTAGTGCAG | 14100 fluorescence intensity (a.u.) |
| TATTAATTATGACAAAACCGACAAATGAGTATACATAAAGCGGAGTCACCTAGTGCAG | 8180 fluorescence intensity (a.u.) |
| CATTGATATAAACTGACAACATGCTGCTGCTGAGAATATGCGGAGTCACCTAGTGCAG | 18300 fluorescence intensity (a.u.) |
| GCATACATAATTGATAGAGAAGAAAATGATGAGAAAACCTCGGAGTCACCTAGTGCAG | 35800 fluorescence intensity (a.u.) |
| AGTTTTAATAATTGATTTCCAAGAGAAATTTGTGTGTTTGCGGAGTCACCTAGTGCAG | 30300 fluorescence intensity (a.u.) |
| GGTGAGTGACTGGAGAGCCGTTGGTTGGGCACTTGCGGTTCGGAGTCACCTAGTGCAG | 12600 fluorescence intensity (a.u.) |
| GTTTCTGATATCATTGATTGCTATCCTCCTCCTCCTCCTTCGGAGTCACCTAGTGCAG | 34600 fluorescence intensity (a.u.) |
| TCAGCACAGTGTTGATTGAGTAGGTTCATCAGGAAGCAGACGGAGTCACCTAGTGCAG | 13700 fluorescence intensity (a.u.) |
| AGTTCTGTTAATGGATGAATCAGGAAAGATGTGCCACGTACGGAGTCACCTAGTGCAG | 5810 fluorescence intensity (a.u.) |
| TTGAGATGATTTACTATTAATTTAGTCTATTGTTGAGATGCGGAGTCACCTAGTGCAG | 35700 fluorescence intensity (a.u.) |
| CGTAATTTGTTCTCCGAAGACGTATTTCGTAGAGAGGAGGCGGAGTCACCTAGTGCAG | 22400 fluorescence intensity (a.u.) |
| TCTACAGTTTAGATAAATTACTTCTAAATTCATAAAATGTCGGAGTCACCTAGTGCAG | 3390 fluorescence intensity (a.u.) |
| TTAAGGTTTATCCAATCACATTCAAAGTTACTAACTACAGCGGAGTCACCTAGTGCAG | 3220 fluorescence intensity (a.u.) |
| GCATATAATTAGTTTACCATGGCTTTAATCAATCATATGCCGGAGTCACCTAGTGCAG | 14900 fluorescence intensity (a.u.) |
| AATCAAATCATGGATATTTTGAAATTTAAAATAAAATCGACGGAGTCACCTAGTGCAG | 6020 fluorescence intensity (a.u.) |
| GATGTTACTCCTAATTAAGAATTTCGGCATTTAGCAAGTACGGAGTCACCTAGTGCAG | 4030 fluorescence intensity (a.u.) |
| GAAAATTGACTTCAATCCAAACAAGCCTAAAGTTTTACCACGGAGTCACCTAGTGCAG | 31100 fluorescence intensity (a.u.) |
| GTGTGAATTTGATTTGCGTGGAGGGTGACACCGTGTGGTACGGAGTCACCTAGTGCAG | 10900 fluorescence intensity (a.u.) |
| CAAGATGACATAATCAGTTATGTCACAGGAGACCACCAAACGGAGTCACCTAGTGCAG | 15600 fluorescence intensity (a.u.) |
| ATGACCAAATTCATTGATTAGATTGTGTCATATTACTCAACGGAGTCACCTAGTGCAG | 19900 fluorescence intensity (a.u.) |
| CGCTTCTTGATTTCTTCGTTTTGCTCGGACACTGTGACCGCGGAGTCACCTAGTGCAG | 4970 fluorescence intensity (a.u.) |
